Measured values: PubChem BioAssay AID1508642 (National Center for Advancing Translational Sciences (NCATS), 2021)
Among all 43,000 compounds or so, about 200 (0.47%) were called active. Inconclusive results (about 12%) are left out. Calls follow the shape of the dose curve; as a rule, active = well fitted cell-killing curve with a large enough effect; inconclusive = small, poorly fitted or top-dose-only effect, or effect the other way; inactive = flat fitted curve, though single readings scatter. This is one part of the list.

Experiment: Cell viability qHTS assay in S16 Pmp22-F2sN cells; also: nearly all actives have a fitted effect of over 65% in size
Conditions: S16 Pmp22-F2sN Schwann cells (luciferase reporters placed in the Pmp22 gene) viability, CellTiter-Glo, 24 h; series mostly up to 57.5 µM; activity change, negative = cytotoxicity: at the top concentration
How it was run: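 Rat S16 Schwann reporter line, 24 h treatment with library compounds delivered at 23 nL per well. Cell viability by CellTiter-Glo luminescence.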
% is scaled to controls: 0 for no effect and ±100 for the full control effect; potency is read from the fitted curve at half-maximal effect.

Row | Structure (SMILES) | activity change, negative = cytotoxicity | Potency
1 | CC(=O)Nc1ccc(NS(=O)(=O)c2c(C(=O)N3CCCCCC3)c(C)n(C)c2C)cc1 | inactive: 4.21% | –
2 | CN(C)c1ccc(NC(=O)Cn2c(SCc3ccc(F)cc3)nc3ccncc32)cc1 | inactive: -28.3% | –
3 | COc1ccc(CCNC(=O)CSc2cn(CCNC(=O)c3c(F)cccc3F)c3ccccc23)cc1OC | inactive: 12.6% | –
4 | Cc1oc2cc3oc(=O)c(CCC(=O)NCCc4ccccc4F)c(C)c3cc2c1C | inactive: -0.45% | –
5 | COc1ccc(-c2nc3c(c(SCc4ccc(Br)cc4)n2)Cc2c(CO)cnc(C)c2O3)cc1 | inactive: -3.35% | –
6 | Cc1ccc(OCCSc2nnc(-c3cccs3)o2)cc1 | inactive: 3.05% | –
7 | Cc1ccc(C(=O)COC(=O)CCC(=O)Nc2ccc(Oc3ccccc3)cc2)cc1 | inactive: 7.16% | –
8 | COc1ccc(Cn2c(=O)c3oc4ccccc4c3n(CC(=O)Nc3c(C)cccc3C)c2=O)cc1 | inactive: 8.3% | –
9 | COc1ccc(N2CCN(S(=O)(=O)c3ccc(-c4coc(C)n4)cc3)CC2)cc1 | inactive: -6.43% | –
10 | CCOc1ccc(CC(=O)Nc2c(C(=O)c3ccccc3)oc3ccc(Cl)cc23)cc1OCC | inactive: 0.783% | –
11 | CCCCC12CN3CC(C)(CN(C1)C3c1c[nH]c3ccccc13)C2=O (centres undefined) | inactive: 15.1% | –
12 | Cc1cccc(CSc2nc3c([nH]c4ccccc43)c(=O)n2C)c1 | inactive: 0.703% | –
13 | Cc1ccc(NC(=O)C(CC(C)C)N2Cc3ccccc3C2=O)cc1F (centres undefined) | inactive: -10.5% | –
14 | CNS(=O)(=O)c1cn(CC(=O)N2CCN(c3ccc(C(C)=O)cc3)CC2)cc1S(=O)(=O)NC | inactive: 12.6% | –
15 | COc1cc2c(cc1OC)n(CC(=O)c1cc(C)ccc1C)c(=O)n1nc(CCn3nc(C)cc3C)nc21 | inactive: 7.29% | –
16 | Cc1c(CCNC(=O)c2ccc(C(C)(C)C)cc2)sc2nc(-c3ccc(F)cc3)nn12 | inactive: -1.51% | –
17 | CC1=C(C(=O)Nc2cccnc2)C(c2ccc(C)cc2)n2nc(SCc3ccccc3F)nc2N1 (centres undefined) | inactive: 16.6% | –
18 | CCc1cc2c(cc3c(=O)n(CCCC(=O)NCc4cccc(Br)c4)ncn32)s1 | inactive: -0.633% | –
19 | CC(=O)Nc1ccccc1-c1nc2ccccc2n(CC(=O)Nc2cccc(C)c2C)c1=O | inactive: -3.3% | –
20 | Cc1ccc2nc(SCc3nc(-c4ccc(Cl)cc4)no3)[nH]c2c1 | inactive: -8.53% | –
21 | O=C(CSc1nc(=O)n(CCN2CCOCC2)c2c1CCC2)Nc1ccc(Cl)c(Cl)c1 | inactive: 7.12% | –
22 | O=C(Nc1ccc(F)c(Cl)c1)Nc1c[nH]c(=O)[nH]c1=O | inactive: -8.58% | –
23 | COc1ccc(C2CC(=O)N(Cc3ccc(C)cc3)c3c2c(C)nn3-c2nc(C)cc(C)n2)c(OC)c1 (centres undefined) | inactive: -12.9% | –
24 | Cc1cc2c(cc1S(=O)(=O)Nc1cccc(Cl)c1C)n(C)c(=O)c(=O)n2C | inactive: -12.1% | –

Row | Structure (SMILES) | activity change, negative = cytotoxicity | Potency
25 | CCOC(=O)c1cc(-c2ccccc2)n(CCC(=O)Nc2ccccc2CC)c1C | inactive: 3.44% | –
26 | COc1ccc(NC(=O)c2cc3cc(C)ccc3[nH]2)cc1 | inactive: 12.2% | –
27 | COc1ccccc1N1CCN(c2ccc(=O)n(CC(=O)NCc3ccc(F)cc3)n2)CC1 | inactive: -3.4% | –
28 | O=C(OCc1cc(=O)n2nc(-c3cccs3)sc2n1)c1ccccc1Cl | inactive: -3.54% | –
29 | COc1cccc(CSc2nc3n(n2)C(c2ccc(C(=O)O)cc2)C(C(=O)Nc2ccccc2)=C(C)N3)c1 (centres undefined) | inactive: 2.8% | –
30 | CCOc1ccccc1NC(=O)CSc1nc2c(oc3ccccc32)c(=O)n1-c1ccc(F)cc1 | inactive: -1.33% | –
31 | CC(C)(C)C(=O)CSc1nc2ccsc2c(=O)n1Cc1ccccc1Cl | inactive: -0.042% | –
32 | CSc1ccc(CCNC(=O)c2cc(C)nc3c2c(C)nn3-c2cccc(F)c2)cc1 | inactive: -2.85% | –
33 | Cc1c(C(=O)N2CCCCCC2)c(S(=O)(=O)NCc2ccccc2)c(C)n1C | inactive: 1.72% | –
34 | Cc1ccc(-n2nc(C(=O)N3CCN(c4ccccc4F)CC3)c(=O)n(C)c2=O)cc1 | inactive: -4.12% | –
35 | CCCCCc1ccc(-c2ccc(Br)cc2)nc1 | inactive: 12% | –
36 | O=C(NCc1ccccc1F)C(=O)NCC(c1ccc2c(c1)OCO2)N1CCOCC1 (centres undefined) | inactive: 1.05% | –
37 | CCOc1ccc(CCNC(=O)c2c(C)oc3ncn(CC(C)C)c(=O)c23)cc1OCC | inactive: -2.65% | –
38 | CC(=O)N1CCc2c(sc3c2c(=O)n(-c2ccccc2)c(=O)n3CC(=O)Nc2cc(C)cc(C)c2)C1 | inactive: -3.96% | –
39 | CCc1ccc(NC(=O)CSc2nc(C)c(C(=O)Nc3ccccc3)c(-c3ccc(OC)c(OC)c3)c2C#N)cc1 | inactive: -3.64% | –
40 | Cc1cc(Br)ccc1NC(=O)CSc1c2c(nc3ccccc13)CCC2 | inactive: 6.83% | –
41 | Cc1c(NC(=O)c2cccs2)cccc1-c1nc2cc(Cl)ccc2o1 | inactive: 9.7% | –
42 | COc1ccc(S(=O)(=O)n2nc(-c3ccco3)nc2NCc2ccc(C(C)C)cc2)cc1 | inactive: 3.61% | –
43 | CCOc1ccc(NC(=O)c2nc(S(=O)(=O)Cc3ccccc3F)ncc2Cl)cc1 | – | active: 5.01 µM
44 | CCc1ccc(-c2nc3cc(NC(=O)c4ccc(C)c(C)c4)ccc3o2)cc1 | inactive: -8.48% | –
45 | CCc1nnc2c3ccccc3nc(Nc3cc(C)cc(C)c3)n12 | inactive: 0.967% | –
46 | CC(=O)NCCNC(=O)CCCc1nnc2n(CC(C)C)c(=O)c3sccc3n12 | inactive: 0.0057% | –
47 | COc1ccc(-c2cc(-c3nc(-c4cc(OC)c(OC)c(OC)c4)no3)[nH]n2)c(OC)c1 | inactive: -18.1% | –
48 | COc1cccc(NC(=O)Cn2c(=O)n(Cc3ccc(F)cc3)c(=O)c3sc4ccccc4c32)c1 | inactive: 0.629% | –

Row | Structure (SMILES) | activity change, negative = cytotoxicity | Potency
49 | CCOc1ccc(C(=O)Nc2ccc(OCc3cc(=O)n4cccc(C)c4n3)cc2)cc1 | inactive: 4.32% | –
50 | COc1ccc(CNC(=O)CCc2c(C)nc3cc(-c4ccc(OC)cc4OC)nn3c2C)cc1 | inactive: 6.43% | –
51 | CCOc1ccc2nc(N3CCCC(C(=O)Nc4ccccc4CC)C3)sc2c1 (centres undefined) | inactive: -3.96% | –
52 | CCc1ccc(NC(=O)CSc2nc(-c3ccc(C)cc3)nc3c2Cc2c(CO)cnc(C)c2O3)cc1 | inactive: -0.186% | –
53 | CCOC(=O)c1cc(-c2ccc(F)cc2)n(CCC(=O)NC2CCC(C)CC2)c1C (centres undefined) | inactive: -20.9% | –
54 | Cc1cccc(NC(=O)Cn2c(=O)n(CC3CCC(C(=O)NCCc4ccccc4)CC3)c(=O)c3ccccc32)c1 (centres undefined) | inactive: 21.1% | –
55 | Fc1ccc(-c2cc(-c3ccc(F)cc3)c3c(n2)-c2cc(F)ccc2OC3)cc1 | inactive: 11.6% | –
56 | Fc1ccc(Nc2nc(-c3cccc(Cl)c3)c3c(n2)-c2ccccc2OC3)c(F)c1 | inactive: -2.85% | –
57 | CC(CC(=O)Nc1ccc(F)cc1)S(=O)(=O)c1cc2c3c(c1)CCN3C(=O)CC2 (centres undefined) | inactive: 8.47% | –
58 | COc1ccc(N2CCN(C(=O)C(CC(C)C)NS(=O)(=O)c3ccc4nc(C)sc4c3)CC2)cc1 (centres undefined) | inactive: 1.27% | –
59 | CNc1ccc(-c2nc(-c3ccncc3)no2)cc1[N+](=O)[O-] | inactive: 4.4% | –
60 | O=C(NC1CCCCC1)c1ccc2c(c1)N(Cc1cccc(Cl)c1)C(=O)c1ccccc1S2(=O)=O | inactive: -2.15% | –
61 | Cc1ccc(CNc2cc(C)nc3nc(-c4ccc(C)cc4)nn23)cc1 | inactive: 18.5% | –
62 | COC(=O)c1ccccc1NC(=O)CSc1nc2ccccc2nc1Cc1ccc(F)cc1 | inactive: 2.52% | –
63 | O=C(Nc1cc(-c2cccc(Cl)c2)nn1-c1ccccc1)c1ccccc1F | inactive: 12.8% | –
64 | CCS(=O)(=O)c1ncc(N(Cc2ccccc2)Cc2ccco2)c(C(=O)Nc2ccccc2C)n1 | inactive: -3.73% | –
65 | Cc1nnc(NC(=O)CSc2nccn2Cc2ccccc2)s1 | inactive: 3.1% | –
66 | CSCCC(NS(=O)(=O)c1ccc2c(c1)oc(=O)n2C)C(=O)NCc1ccc(Cl)cc1 (centres undefined) | inactive: -3.5% | –
67 | CCC(C)(C)NC(=O)C(NS(=O)(=O)c1cccs1)c1ccccc1 (centres undefined) | inactive: 1.76% | –
68 | Cc1cc(F)ccc1Nc1nc2ccc(Cl)cc2n2cnnc12 | inactive: 13.5% | –
69 | CCOC(=O)c1ccc(-n2c(CCC(=O)O)ccc2-c2ccccc2)cc1O | inactive: -2.4% | –
70 | O=C(Cc1ccc(Cl)cc1)NCCc1csc2nc(-c3ccccc3F)nn12 | inactive: -26.1% | –
71 | O=C(Nc1ccc(F)cc1F)C1CCN(C(=O)c2cnn(-c3ccccc3)c2-n2cccc2)CC1 | inactive: -11.7% | –
72 | C=CCC(CC=C)(CNC(=O)C(=O)Nc1ccc(Br)cc1)c1ccc(OC)c(OC)c1 | inactive: 9.34% | –

Row | Structure (SMILES) | activity change, negative = cytotoxicity | Potency
73 | CCCc1nnc(SCc2cc(=O)c3c(C)cc(C)cc3[nH]2)n1C | inactive: 13.8% | –
74 | CCc1nnc(NC(=O)CSc2nccn2Cc2ccc(Cl)cc2)s1 | inactive: 5.45% | –
75 | CCc1ccc(CNC(=O)Cn2nc(C)c3nn(-c4ccc(Cl)cc4)c(C)c3c2=O)cc1 | inactive: 1.39% | –
76 | CCOc1ccc(NS(=O)(=O)c2c(C)nc3sc(CC)nn3c2=O)cc1 | inactive: -14.3% | –
77 | COCCNC(=O)c1ccc2c(c1)ncn2-c1cc(C)ccc1OC | inactive: -2.4% | –
78 | Cn1cccc1-c1cc2n(n1)CCC(=O)N2CCCC(=O)NCc1cccc(Cl)c1 | inactive: -15.1% | –
79 | O=C(NCc1cccc(Cl)c1)c1cnc(N2CCOCC2)c2ccccc12 | inactive: 18.5% | –
80 | Cc1cc(C)cc(NC(=O)CCn2cnc3ccccc3c2=O)c1 | inactive: 1.96% | –
81 | CCOc1ccccc1NC(=O)Cn1c(=O)n(-c2ccc(C)cc2)c(=O)c2c1cnn2C | inactive: 2% | –
82 | CSc1ccc(CCNC(=O)c2ccc(-n3c(C)cc4c3CCC(C)C4)cc2)cc1 (centres undefined) | inactive: -6.71% | –
83 | COc1ccc2c(c1)c(CC(=O)Nc1c(C)cccc1C)c(C)n2C(=O)c1ccc(Cl)cc1 | inactive: 10.1% | –
84 | COc1ccc(OCC(=O)NCc2ccc3c(c2)CCN3C(=O)c2cccc(C)c2)cc1 | inactive: -21.6% | –
85 | Cc1ccc(C)c(N2CCN(C(=O)c3c(C)oc4nc(C)nc(N5CCOCC5)c34)CC2)c1 | inactive: -13.2% | –
86 | CCCCC(=O)OC1=CN(Cc2ccccc2)S(=O)(=O)c2ccccc21 | inactive: -2.54% | –
87 | COc1ccc(NC(=O)c2ccc(NC(=O)CCS(=O)(=O)c3cccs3)cc2)cc1Cl | inactive: 14.4% | –
88 | Cc1ccc(-n2nnnc2SCC(=O)NCCc2ccccc2)cc1C | inactive: 5.56% | –
89 | CCOc1ccc(N(CC(=O)OC)S(=O)(=O)c2ccc3c(c2)n(C)c(=O)c(=O)n3C)cc1 | inactive: -3.26% | –
90 | CCC(C)NC(=O)Cn1c(=O)n(-c2ccc(Cl)cc2)c(=O)c2c3c(sc21)CCCC3 (centres undefined) | inactive: 3.2% | –
91 | C=CCc1ccccc1OCCSc1nc(-c2ccccc2F)nc2cc(=O)[nH]n12 | inactive: -17.6% | –
92 | CSc1ncc(C(=O)NCc2cccc(C)c2)c(-c2ccccc2)n1 | inactive: -4.47% | –
93 | COc1ccccc1/C=C/C(=O)Nc1nc2n(n1)C(c1ccc(F)cc1)C=C(c1ccccc1)N2 (centres undefined) | inactive: 1.15% | –
94 | Cc1ccc(OCCn2c(C3CC(=O)N(Cc4ccc(F)cc4)C3)nc3ccccc32)c(C)c1 (centres undefined) | inactive: -1.24% | –
